The test deals with T1, Recombinant human tau-441 (2N4R), monomers (human, UniProt P10636-8 1-441).
T1 construct: tau, human, isoform tau-441 (2N4R), printed length 441; also called tau monomers; monomeric tau; source: bought: rPeptide (cat. T-1001-2), produced in E. coli
Briefly: pull-down; recombinant human tau-441 at nominal 1.2 µM incubated 5 h in binding buffer with His-tagged ApoE3 or ApoE3Ch, captured on nickel beads; Western blot with tau-5 and anti-His under reducing conditions; repeated four times. The note with it: both partners purified. In general terms: Immunoblotting shows a protein as a band on a membrane.

B1: Recombinant His-tagged ApoE3 Christchurch variant, HEK-derived (natural protein)
chain: not shown
notes: apolipoprotein E3 (APOE3) with the Christchurch variant, human; cDNA as synthetic gene fragment in pcDNA3, secreted into the conditioned media; position 136 is codon 154 by current nomenclature (printed); numbers count on: the mature protein ('classic' nomenclature); Natural variant R136S (mature numbering); also called HEK-derived ApoE3Ch; source: HEK293 or Expi293F, transiently transfected, …
With B1, the binding result is “binds”.

The values are drawn from article PMC12242688, “ApoE3 Christchurch and tau interaction as a protective mechanism against Alzheimer's disease” (Alzheimer's & Dementia, 2025).
